According to PubChem BioAssay AID1508624 (National Center for Advancing Translational Sciences (NCATS), 2021):
Screen size: about 48,000 compounds; about 120 (0.25%) were called active. Roughly 4% stayed inconclusive and do not appear here. The call rests on the fitted dose curve; in most records, active means well fitted activation curve with a large enough effect; inconclusive means small, poorly fitted or top-dose-only effect, or another doubt; inactive means no such curve, though single readings can be large or run the other way. The list shows a part of the results.

Test: Primary qHTS for Identification of Small Molecule Activators of Huntingtin-Antisense Promoter Activity; further: nearly all actives have a fitted effect of over 55% in size
Conditions: HEK293 HTT-AS promoter firefly luciferase reporter, 24 h; series mostly up to 57.5 µM; activity change, positive = activation: at the top concentration
Outline: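 HEK293 Fluc reporter, 2,500 cells/well, 24 h pre-culture; cpds up to 57.5 uM final, 24 h 37 degrees C; Dual-Glo, 10 min RT; normalized vehicle = 0%, zero RLU = -100%.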

Activity change, positive = activation, inactive:
NC(=O)c1nc(-c2ccc(F)c(F)c2)nc2c1[nH]c(=O)n2-c1cccc(Cl)c1 -16%, CCN1CCN(CCCNC(=O)c2cnn(-c3ccc(C)cc3C)c2C2CCN(C(=O)OC(C)(C)C)CC2)CC1 -29.8%, O=S(=O)(c1ccc(Br)cc1)c1nnn2c1nc(N1CCOCC1)c1sccc12 0.496%, Cc1ccc(C(=O)Nc2ccc3nc(SCC(=O)N4CCCc5ccccc54)sc3c2)cc1 -10.5%, O=C(COC(=O)c1cc(-c2ccccc2)nc2ccccc12)c1ccc(Br)cc1 -3.61%, CSc1nc2sc3c(c2c(=O)n1Cc1ccccc1)CCC(C(C)(C)C)C3 (centres undefined) -23.6%, CCOc1cc(C(=O)OCc2cc(=O)n3nc(CC)sc3n2)cc(OCC)c1OCC 6.75%, CCC(=O)N1CCc2cc(Br)cc(S(=O)(=O)N3CCCC(C(=O)Nc4ccc(C(C)C)cc4)C3)c21 (centres undefined) -17.6%, CC1CCC(C(=O)NC(C(=O)OCC(=O)c2ccccc2)C(C)C)CC1 (centres undefined) -22.3%, CCc1cnc2c(c1SCC(=O)c1ccccc1)c(=O)n(C)c(=O)n2C -10.3%, CCOc1sc2nc(C)n(CC(=O)Nc3cccc(C)c3)c(=O)c2c1C 3.2%, Cc1scc2c1N(C(=O)CN1CCN(C)CC1)c1ccccc1NC2=O -5.46%, COc1ccc(-c2ccc(NS(=O)(=O)c3ccc(OC)c(OC)c3)cc2)nn1 -12.1%, COC(=O)c1ccccc1NC(=O)c1c(C)oc2ncn(C)c(=O)c12 -11.3%, COc1ccc(OCc2nc3ccccc3n2Cc2ccccc2Cl)cc1 -15.6%, CCCCC(=O)N(c1ccc2oc(C)c(C(C)=O)c2c1)S(=O)(=O)c1ccc(F)cc1C -28.9%, O=C(CSc1nnc(-c2cccc(F)c2)c(-c2cccc(F)c2)n1)NC1CCCCC1 -7.46%, O=C(Cn1ncc2c(=O)oc3ccccc3c21)N1CCN(c2ccc(Cl)cc2)CC1 5.77%, COc1cccc(CSc2nc(-c3ccccc3F)nc3c2Cc2c(CO)cnc(C)c2O3)c1 -10.1%, COc1ccc(-n2nc3c(N4CCC(C(=O)NCCc5ccccc5)CC4)nnc(C)c3c2C)cc1 -18.7%, COc1ccc2cc(CNc3ccc(C)cc3)c(=O)n(CC(=O)Nc3cccc(Cl)c3C)c2c1 2.1%, COc1cc(Cl)c(C)cc1NC(=O)c1cnn(-c2ccc(F)cc2F)c1C1CCN(C(=O)OC(C)(C)C)CC1 -30%, CCOC(=O)c1c(NC(=O)COc2ccccc2Br)sc2c1CCCCC2 -4.53%, Cc1ccc(-c2nnc(Nc3ccccc3)c3ccccc23)cc1S(=O)(=O)N1CCN(C)CC1 15.6% [at 11.5 µM, percent change from vehicle, -100% = no light], CC(C)(C)c1ccc(C(=O)N(Cc2ccc(F)cc2)Cc2ccco2)cc1 -27.4%, Cc1ccc(CNC(=O)Cc2ccc(NC(=O)N3CCSc4ncccc43)cc2)cc1 -6.18%, CC(C)(C)NC(=O)N1CCC(C(=O)O)CC1 12%, CCCNC(=O)c1ccc(Cn2c(=O)c3cccn3c3cccnc32)cc1 -16.7%, CCc1ccccc1NC(=O)c1ccc2c(c1)nnn2C1CCCC1 1.4%, CCOc1ccccc1NC(=O)CN1C(=O)COc2ccc(S(=O)(=O)NC3CCCC3)cc21 -27.3%, COCCCNC(=O)CCCn1c(=O)c2cccn2c2ccccc21 -0.751%, COc1ccccc1CNC(=O)CCC1N=C2c3ccccc3N=C(SCc3ccc(Cl)cc3)N2C1=O (centres undefined) -10.4%, O=C1CCCc2cc(S(=O)(=O)NCC3CCC(C(=O)NCc4ccc(F)cc4)CC3)ccc2N1 (centres undefined) -26%, O=C(Nc1cccc(C(F)(F)F)c1)c1cccc(C(=O)Nc2cccc(C(F)(F)F)c2)c1 -30.8%, Cc1ccc(N2CCN(S(=O)(=O)c3ccc(Cl)c4ccccc34)CC2)c(C)c1 -13.6%, CCOC(=O)c1c(C)c(-c2ccccc2)n(CC(=O)Nc2cc(C)cc(C)c2)c1C -15.7%, Cc1ccc2c(Br)cc(Br)c(O)c2n1 -21%, Cc1ccc(CNC(=O)CCc2cn(Cc3ccc(C)cc3)c3ccccc23)cc1 -4.79%, CCOc1ccc(-c2cc3nc(C4CCN(C(=O)OC(C)(C)C)CC4)c(C(=O)Nc4c(C)cccc4C)cn3n2)cc1 8.89%, Cc1cc(C)c(Cn2c(=O)n(CCCCC(=O)NCc3ccccc3Cl)c(=O)c3ccccc32)c(C)c1 -12.1%, CCC(=O)Nc1ccccc1-c1nc2ccccc2n(C(CC)C(=O)Nc2cccc(Cl)c2)c1=O (centres undefined) -31.2%, CCOC(=O)c1c(C)sc(-c2c(-c3cccc(Cl)c3)[nH]c3c2c(=O)n(C)c(=O)n3C)c1O -6.35%, COc1ccc(NC(=O)C2=C(C)Nc3ncnn3C2c2ccc[nH]2)cc1 (centres undefined) -7.97%, Cc1c(C(=O)N(C)C)sc2c1c(=O)n(-c1ccc(F)cc1)c(=O)n2Cc1ccccc1C#N -3.1%, CCc1ccccc1N(C)S(=O)(=O)c1ccc2c(c1)C(C)(C)C(=O)N2C -28.1%, CC(=O)Nc1ccc(NC(=O)C2CCN(c3cnccn3)CC2)cc1 -9.77%, CC(=O)N1CCc2cc(CNC(=O)Nc3ccc(Br)c(C)c3)ccc21 -2.24%, Fc1ccc2c(c1)-c1c(cnc3cc(-c4ccc(Cl)cc4)nn13)CO2 18%, C=Cc1ccc(Cn2ccn(-c3ccc(F)c(F)c3)c(=O)c2=O)cc1 -3.28%, COc1ccc(-c2nc(CSc3nnc(C)n4c3cc3oc(C)cc34)c(C)o2)cc1OC -1.42%, CCn1cc2nc(SCc3ccc(F)cc3)n(CCc3ccccc3)c(=O)c2n1 -8.59%, CCN(CCCNC(=O)c1ccc(Sc2ccc(Cl)cc2)c(NC(C)=O)c1)c1ccccc1 -31.7%, O=C(c1cccs1)N(Cc1cccnc1)c1nc2c(F)cc(F)cc2s1 -29%, CCN(CC)S(=O)(=O)c1nnc(NC(=O)c2ccc(Br)cc2)s1 -28.8%, Cc1cc(NC(=O)Cn2c(=O)oc3cc(S(=O)(=O)N4CCCC4)ccc32)ccc1Br -25.3%, COc1ccc(CCNC(=O)C2CCCN(S(=O)(=O)c3ccc4c(c3)oc(=O)n4C)C2)cc1OC (centres undefined) -32.7%, O=S(=O)(c1ccccc1)c1nc(-c2cccc(Cl)c2)oc1N1CCOCC1 -13.3%, CC(C)(C)C(=O)CSc1nc2ccsc2c(=O)n1Cc1ccccc1Cl -18.7%, CSc1ccc(CCNC(=O)c2cc(C)nc3c2c(C)nn3-c2cccc(F)c2)cc1 -12.1%, COc1ccccc1N1CCN(c2ccc(=O)n(CC(=O)NCc3ccc(F)cc3)n2)CC1 -13.5%, O=C(OCc1cc(=O)n2nc(-c3cccs3)sc2n1)c1ccccc1Cl 20.1%, COc1cccc(CSc2nc3n(n2)C(c2ccc(C(=O)O)cc2)C(C(=O)Nc2ccccc2)=C(C)N3)c1 (centres undefined) 6.24%, CCOc1ccccc1NC(=O)CSc1nc2c(oc3ccccc32)c(=O)n1-c1ccc(F)cc1 -19.8%, Cc1c(C(=O)N2CCCCCC2)c(S(=O)(=O)NCc2ccccc2)c(C)n1C -5.45%, COc1ccc(CN(CCN(C)C)c2ccccn2)cc1 -3.05%, CCCNC(C)C(=O)Nc1ccccc1C (centres undefined) -3.26%, CCOc1ccc(CCNC(=O)c2c(C)oc3ncn(CC(C)C)c(=O)c23)cc1OCC 0.543%, CC(=O)N1CCc2c(sc3c2c(=O)n(-c2ccccc2)c(=O)n3CC(=O)Nc2cc(C)cc(C)c2)C1 -34.7%, CC(COc1ccccc1)N(CCCl)Cc1ccccc1 (centres undefined), Nc1ncn([C@@H]2O[C@H](CO)[C@@H](O)[C@H]2O)c(=O)n1 -40%, Cc1ccc(-n2nc(C(=O)N3CCN(c4ccccc4F)CC3)c(=O)n(C)c2=O)cc1 -8.24%, O=C(NCc1ccccc1F)C(=O)NCC(c1ccc2c(c1)OCO2)N1CCOCC1 (centres undefined) -9.8%, CCc1ccc(NC(=O)CSc2nc(C)c(C(=O)Nc3ccccc3)c(-c3ccc(OC)c(OC)c3)c2C#N)cc1 -23.4%, Cc1cc(Br)ccc1NC(=O)CSc1c2c(nc3ccccc13)CCC2 -36.2%, CCCCC12CN3CC(C)(CN(C1)C3c1c[nH]c3ccccc13)C2=O (centres undefined) 0.138%, CCCCC(CC)CNC(=O)Cc1ccc(-n2c(=O)[nH]c3ccccc3c2=O)cc1 (centres undefined) -29.7%, Cc1cccc(CSc2nc3c([nH]c4ccccc43)c(=O)n2C)c1 -7.5%, CC(=O)N1c2ccc(S(=O)(=O)Nc3ccc(C)c(Cl)c3)cc2CC1C (centres undefined) -39.1%, COc1ccc(N2CCN(S(=O)(=O)c3ccc(-c4coc(C)n4)cc3)CC2)cc1 -30.9%, CCOc1ccc(CC(=O)Nc2c(C(=O)c3ccccc3)oc3ccc(Cl)cc23)cc1OCC -4.1%, COc1cc2c(cc1OC)n(CC(=O)c1cc(C)ccc1C)c(=O)n1nc(CCn3nc(C)cc3C)nc21 -16.5%, Cc1c(CCNC(=O)c2ccc(C(C)(C)C)cc2)sc2nc(-c3ccc(F)cc3)nn12 -0.0089%, CC1=C(C(=O)Nc2cccnc2)C(c2ccc(C)cc2)n2nc(SCc3ccccc3F)nc2N1 (centres undefined) -6.3%, Cc1cc(Nc2ccc(F)cc2F)nc(-n2nc(C)cc2C)n1 -19.9%, CCc1cc2c(cc3c(=O)n(CCCC(=O)NCc4cccc(Br)c4)ncn32)s1 -58.6%, Cc1ccc(NC(=O)C(CC(C)C)N2Cc3ccccc3C2=O)cc1F (centres undefined) -19.5%, CNS(=O)(=O)c1cn(CC(=O)N2CCN(c3ccc(C(C)=O)cc3)CC2)cc1S(=O)(=O)NC -8.65%, O=C(CSc1nc(=O)n(CCN2CCOCC2)c2c1CCC2)Nc1ccc(Cl)c(Cl)c1 -33.8%, O=C(Nc1ccc(F)c(Cl)c1)Nc1c[nH]c(=O)[nH]c1=O -1.97%, CC(=O)Nc1ccccc1-c1nc2ccccc2n(CC(=O)Nc2cccc(C)c2C)c1=O -0.278%, CC(CNC(=O)c1cnn(-c2ccc(F)cc2)c1-n1cccc1)c1ccccc1 (centres undefined) -45.3%, Cc1cc2c(cc1S(=O)(=O)Nc1cccc(Cl)c1C)n(C)c(=O)c(=O)n2C -27.6%, CCOC(=O)c1cc(-c2ccccc2)n(CCC(=O)Nc2ccccc2CC)c1C -11.3%, Cc1cc(C)cc(N2C(=O)CSC23C(=O)N(Cc2c(F)cccc2Cl)c2ccccc23)c1 (centres undefined) -37.4%
